This note sets out measurements from PubChem BioAssay AID360 (National Center for Advancing Translational Sciences (NCATS), 2006).

Hit rate of the full screen: of about 48,000 compounds, about 550 (1.1%) were called active. Another 4% or so got no clear call; they are omitted. No stated cut-off is given here; in the data, active means potency below about 15 µM; inconclusive means mostly about 16 µM to 33 µM; inactive means weaker than that. Some of the results follow.
Potency means the concentration at half of the fitted maximal effect.

The experiment addresses Lysosomal acid glucosylceramidase (Homo sapiens) (UniProt P04062). Briefly: Glucocerebrosidase.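 Further: the screen sought inhibitors.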 Particulars: purified enzyme, resorufin glucoside fluorescence (screen aimed at inhibitors), 20 min. Put shortly: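 Normal human glucocerebrosidase (0.2 nM final) was assayed with resorufin β-D-glucopyranoside (30 uM final) in 50mM citric acid/KH2PO4, 10mM sodium taurocholate, 0.01% tween-20, pH 5.9. Compounds were titrated; fluorescence (Ex 548, Em 600) read after 20 min at RT.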
UniProt P04062, sequence (P04062 whole entry, looked up): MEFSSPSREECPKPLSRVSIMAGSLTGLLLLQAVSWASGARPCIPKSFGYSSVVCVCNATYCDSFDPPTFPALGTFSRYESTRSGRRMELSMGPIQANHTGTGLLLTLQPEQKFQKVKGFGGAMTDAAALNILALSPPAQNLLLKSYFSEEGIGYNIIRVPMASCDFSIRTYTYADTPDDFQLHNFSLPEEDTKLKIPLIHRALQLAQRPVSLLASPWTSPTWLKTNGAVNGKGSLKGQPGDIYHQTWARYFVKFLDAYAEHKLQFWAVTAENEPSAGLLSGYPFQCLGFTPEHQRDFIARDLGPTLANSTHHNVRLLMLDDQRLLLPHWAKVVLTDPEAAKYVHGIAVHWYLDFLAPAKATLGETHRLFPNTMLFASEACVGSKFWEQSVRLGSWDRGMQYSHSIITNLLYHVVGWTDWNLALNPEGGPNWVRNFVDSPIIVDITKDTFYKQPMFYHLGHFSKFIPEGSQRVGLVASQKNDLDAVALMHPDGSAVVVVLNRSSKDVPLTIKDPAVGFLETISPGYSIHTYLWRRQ
In the case of `O=C(O)c1n[nH]c2c1CCCC2`, the Potency is inactive: > 76.9 µM. For `CCOC(=O)N1CCN(S(=O)(=O)c2ccc3c(c2)SC(C)C(=O)N3)CC1` (stereo unspecified) the value was inactive: > 76.9 µM; for `COC(=O)c1ccccc1NC(=O)CN1CCC(n2nnc3cc(C)ccc32)CC1`, inactive: > 76.9 µM; for `O=C(O)CSc1ccccn1`, inactive: > 76.9 µM. For `Nc1nc(SCC(=O)C23CC4CC(CC(C4)C2)C3)n[nH]1` the value was inactive: > 76.9 µM; for `COc1ccc(NC(=O)CCNS(=O)(=O)c2ccc3c(c2)c(=O)n(C)c(=O)n3C)cc1`, inactive: > 76.9 µM; for `CCc1nn2cc(-c3ccccc3)nc2s1`, inactive: > 76.9 µM. For `Cc1cc(NC(=O)COc2nnc(-c3ccccc3)c3ccccc23)no1` the value was inactive: > 76.9 µM.

Turning to `Cc1ccc(-c2nc3ncccc3o2)cc1NC(=O)c1ccco1`, the Potency is inactive: > 76.9 µM. For `Cc1ccc(C)c(C(=O)NC2CC(C)(C)NC(C)(C)C2)c1` the value was inactive: > 76.9 µM.

Take `CCN=C1SC(C(N)=O)CC(=O)N1CC` (stereo unspecified): the Potency is inactive: > 76.9 µM. For the compound `O=S(=O)(Nc1nc2ccccc2nc1NCC1CCCO1)c1cccs1` (stereo unspecified), the Potency is inactive: > 76.9 µM. As for `Cc1ccc(CN(C)CCc2ccccn2)cc1`, the figure is inactive: > 76.9 µM; as for `CC(=O)Nc1cccc(N2C(=O)CC(N3CCC(C(=O)N4CCCCC4)CC3)C2=O)c1` (stereo unspecified), inactive: > 76.9 µM; as for `CCc1c(O)nc(SCC(N)=O)n(-c2ccccc2F)c1=O`, inactive: > 76.9 µM. As for `Cc1ccc(S(=O)(=O)N2CCC(C(=O)N3CCC[C@H]3C(=O)NCc3ccco3)CC2)cc1`, the figure is inactive: > 76.9 µM. With `c1ccc(CCNc2c3c(nc4ncnn24)CCC3)cc1`, the Potency is inactive: > 76.9 µM. As for `Cc1ccc(-c2nnc(N(C)C(=O)C3CCCO3)s2)cn1` (stereo unspecified), the figure is inactive: > 76.9 µM.

Consider `COc1ccc(C2CC(=O)c3cnc(N)nc3C2)c(OC)c1` (stereo unspecified), for which the Potency was inactive: > 76.9 µM.

As to `Cc1ccc2oc3c(c(=O)c2c1)C(c1cccc(Br)c1)N(Cc1ccco1)C3=O` (stereo unspecified), the Potency is inactive: > 76.9 µM. With `N#C/C(=C\Nc1ccc2c(c1)OCCO2)c1nc2ccccc2[nH]1`, the Potency is inactive: > 76.9 µM. As for `O=C(O)C1CCCCC1C(=O)Nc1ccc(Cl)cc1` (stereo unspecified), the figure is inactive: > 76.9 µM; as for `O=C(NC1CCCCCC1)c1cc(S(=O)(=O)N2CCOCC2)ccc1N1CCCCC1`, inactive: > 76.9 µM; as for `COCCN1C(=O)c2ccccc2C(C(=O)NCCN(C)C)C1c1ccc(F)cc1` (stereo unspecified), inactive: > 76.9 µM.

For `CCCCC(=O)N1CC2(C)CN(C(=O)CCCC)CC(C)(C1)C2=O`, the Potency is inactive: > 76.9 µM. With `COc1ccc(-c2nc(C#N)c(N3CCCCCC3)o2)cc1OC`, the Potency is inactive: > 76.9 µM.
